Our source for the activity change, negative = inhibition values is PubChem BioAssay AID1745853 (National Center for Advancing Translational Sciences (NCATS), 2022).

The other results are listed elsewhere or left out. The main result of the screen is listed elsewhere. These columns were measured beside it and carry no call.

Common to all, as to experiment: Primary Screen for Target Class Profiling of Small Molecule Inhibitors of Methyltransferases
Experiment [1] deals with Glycine N-methyltransferase (Homo sapiens) (UniProt Q14749). Conditions: purified enzyme, MTase-Glo SAH luminescence; measured here: GNMT inhibition; at 40 µM; stronger effect = lower value. Put shortly:
(§1)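 Each enzyme was assayed with SAM and its substrate. SAH formation detected by MTase-Glo luminescence; single-point 40 uM screen[…].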

Experiment [2] deals with Guanidinoacetate N-methyltransferase (Homo sapiens) (UniProt Q14353). Conditions: purified enzyme, MTase-Glo SAH luminescence; measured here: GAMT inhibition; at 40 µM; stronger effect = lower value. The method, boiled down:
as §1

The target in experiment [3] is Histamine N-methyltransferase (Homo sapiens) (UniProt P50135). Conditions: purified enzyme, MTase-Glo SAH luminescence; measured here: HNMT inhibition; at 40 µM; stronger effect = lower value. The method, boiled down: as §1
In experiment [4] the target is Nicotinamide N-methyltransferase (Homo sapiens) (UniProt P40261). Conditions: purified enzyme, MTase-Glo SAH luminescence; measured here: NNMT inhibition; at 40 µM; stronger effect = lower value. The method, boiled down:
as §1

Experiment [5] concerns the target Phenylethanolamine N-methyltransferase (Homo sapiens) (UniProt P11086). Conditions: purified enzyme, MTase-Glo SAH luminescence; measured here: PNMT inhibition; at 40 µM; stronger effect = lower value. The method, boiled down:
as §1
% is set by controls: 0 for no effect and ±100 for the full control effect.

`O=C(NC1CCCCC1)c1ccc2c(=O)nc3c(-c4ccccc4)n[nH]n3c2c1`: the activity change, negative = inhibition came out at 3.36% in experiment [1]; 4.88% in experiment [2]; 3.53% in experiment [3]; 9.55% in experiment [4]; 3.05% in experiment [5].

Regarding `COCCCNC(=O)C1(C)Cn2nc(-c3ccccc3)cc2C(=O)N1c1ccc(C)cc1` (stereo not given), the activity change, negative = inhibition in experiment [1] is -5.42%; in experiment [2], 0.03%; in experiment [3], -6.43%; in experiment [4], -11.1%; in experiment [5] it was -9.62%.

Turning to `CCCCC(=O)N(c1ccc(OC)cc1)S(=O)(=O)c1ccc2c(c1)n(C)c(=O)n2C`, the activity change, negative = inhibition in experiment [1] was -7.09%; in experiment [2] it was 5.84%; in experiment [3], -5.47%; in experiment [4] it was -15.8%; in experiment [5], -3.94%.

For the compound `CC1(C(=O)NCc2ccc(Cl)cc2)Cn2c(ccc2-c2ccco2)C(=O)N1Cc1ccc(F)cc1` (stereo not given), the activity change, negative = inhibition in experiment [1] is -8.52%; in experiment [2], -0.729%; in experiment [3], -7.83%; in experiment [4], -11.8%; in experiment [5], -6.14%.

On to `Cc1nc([C@@H]2CN(C(=O)c3nn(C)c4ccccc34)C[C@H]2C(N)=O)n[nH]1`, for which the activity change, negative = inhibition in experiment [1] is -0.958%; in experiment [2], -0.24%; in experiment [3], 1.61%; in experiment [4] it was -3.73%; in experiment [5] it was 1.72%.

On to `CC(C)CCNC(=O)[C@H]1CN(Cc2ccccc2)C[C@H]1C(=O)O`, for which the activity change, negative = inhibition was -3.99% in experiment [1]; -3.47% in experiment [2]; -0.861% in experiment [3]; 2.39% in experiment [4]; -15.1% in experiment [5].

`COc1ccc(N(C)c2nc(C)nc3ccccc23)cc1`: the activity change, negative = inhibition in experiment [1] was -25%; in experiment [2] it was -0.288%; in experiment [3], 4.36%; in experiment [4] it was -25.6%; in experiment [5], -7.45%.

In the case of `CC(=O)Nc1c2n(c3ccc(F)cc13)CC(C)(C(=O)NC1CCCCC1)N(C1CCCCCC1)C2=O` (stereo not given), the activity change, negative = inhibition in experiment [1] was -2.12%; in experiment [2], 4.66%; in experiment [3] it was 4.13%; in experiment [4], -1.04%; in experiment [5], 0.902%.

With `Cc1ccc(-c2cc3c(ccn3C)c(C(=O)NCc3cccnc3)n2)cn1`, the activity change, negative = inhibition in experiment [1] was -19%; in experiment [2] it was -15.8%; in experiment [3], -12.5%; in experiment [4], -27.4%; in experiment [5] it was -17.1%.

As to `CC(=O)c1cc(C(=O)N[C@@H](C)Cn2ccc(-c3ccc(C#N)c(Cl)c3)n2)[nH]n1`, the activity change, negative = inhibition in experiment [1] is -2.53%; in experiment [2] it was 3.66%; in experiment [3], -2.55%; in experiment [4] it was -27.2%; in experiment [5], -7.69%.

Regarding `COc1ccc(CCN(Cc2ccccn2)C(=O)[C@H]2CCC[C@H](O)C2)cc1`, the activity change, negative = inhibition in experiment [1] was -6.8%; in experiment [2], -7.65%; in experiment [3], -5.25%; in experiment [4], -11.3%; in experiment [5], -1.16%.

Regarding `Cn1c(=O)c2[nH]cnc2n(C)c1=O`, the activity change, negative = inhibition in experiment [1] was 3.93%; in experiment [2] it was 11.5%; in experiment [3], 12.1%; in experiment [4] it was -7.74%; in experiment [5], 0.195%.

Turning to `CCN1C(C)(C)CC(Oc2ccc(C(=O)Nc3ccc(NC(=O)Nc4cc(C(C)(C)C)on4)cc3)nc2)CC1(C)C`, the activity change, negative = inhibition in experiment [1] is 0.182%; in experiment [2], -5.83%; in experiment [3] it was 5.69%; in experiment [4], -22%; in experiment [5], -5.65%.

With `CS(=O)(=O)c1ccc(C2=C(c3ccccc3)C(=O)OC2)cc1`, the activity change, negative = inhibition in experiment [1] is -0.676%; in experiment [2], 1.2%; in experiment [3] it was 3.68%; in experiment [4] it was -11.2%; in experiment [5], -2.91%.

As to `COc1ccc(CCNC(=O)c2ccc3c(=O)[nH]c4c(C(=O)NCC5CCCO5)sc(=S)n4c3c2)cc1OC` (stereo not given), the activity change, negative = inhibition in experiment [1] was -32.7%; in experiment [2], 3.7%; in experiment [3], 0.214%; in experiment [4], -12.2%; in experiment [5], -12.5%.

For `CCCCNc1ncc2c(-c3ccc(S(=O)(=O)N4CCOCC4)cc3)nn(C3CCC(O)CC3)c2n1` (stereo not given), the activity change, negative = inhibition in experiment [1] is -0.107%; in experiment [2] it was 7.91%; in experiment [3], 5.74%; in experiment [4], -4.92%; in experiment [5], -0.326%.

`CC(C)CCNC(=O)C1(C)Cn2c(cc3ccccc32)C(=O)N1c1ccc(F)cc1` (stereo not given): the activity change, negative = inhibition was 9.27% in experiment [1]; 4.48% in experiment [2]; 10.9% in experiment [3]; 12.2% in experiment [4]; 3.57% in experiment [5].

Turning to `C[C@@H]1C(=O)O[C@H]2[C@H](O)C34[C@H]5C[C@@H](C(C)(C)C)C36[C@@H](OC(=O)[C@@H]6O)O[C@@]4(C(=O)O5)[C@@]12O` (stereo not given in full), the activity change, negative = inhibition in experiment [1] is -0.38%; in experiment [2] it was 4.39%; in experiment [3] it was -2.28%; in experiment [4], -7.48%; in experiment [5], 2.59%.

For `COC(=O)c1cc2n(n1)CC(C)(C(=O)NC1CCCCC1)N(Cc1ccc(OC)cc1OC)C2=O` (stereo not given), the activity change, negative = inhibition in experiment [1] is 4.67%; in experiment [2] it was 1.71%; in experiment [3], 9.49%; in experiment [4] it was -6.16%; in experiment [5], 3.56%.

Regarding `O=C(NCc1ccc2c(c1)OCO2)c1sc(=S)n2c1[nH]c(=O)c1cc3c(cc12)OCO3`, the activity change, negative = inhibition in experiment [1] was -0.053%; in experiment [2], 1.33%; in experiment [3] it was 7.47%; in experiment [4], 2.36%; in experiment [5], 0.218%.

As to `Cc1ccc(C(=O)CSc2nnc3n(C)c(=O)c4ccc(C(=O)NC5CCCCC5)cc4n23)c(C)c1`, the activity change, negative = inhibition in experiment [1] was -1.09%; in experiment [2] it was 0%; in experiment [3], -2.75%; in experiment [4], -0.451%; in experiment [5] it was 0.217%.

As to `C=C1CC[C@H]2[C@@](C)(CCC(OC3OC(CO)C(O)C(O)C3O)[C@@]2(C)CO)C1C(=O)CC1=CCOC1=O` (stereo not given in full), the activity change, negative = inhibition was 2.62% in experiment [1]; 5.38% in experiment [2]; 6.67% in experiment [3]; -8.02% in experiment [4]; 6.99% in experiment [5].

Turning to `CCCn1c(=O)c2ccccc2n2c(SCC(=O)Nc3ccc(OC)c(OC)c3)nnc12`, the activity change, negative = inhibition in experiment [1] worked out at 3.05%; in experiment [2], 6.04%; in experiment [3], 3.81%; in experiment [4] it was 3.21%; in experiment [5], 3.38%.

Turning to `CCN1CCN(CCNC(=O)c2cc3n(n2)CC(C)(C(=O)NC2CCCCC2)N(C)C3=O)CC1` (stereo not given), the activity change, negative = inhibition in experiment [1] was -1.03%; in experiment [2] it was -0.05%; in experiment [3], -7.43%; in experiment [4], -1.66%; in experiment [5] it was -4.13%.

On to `COC(=O)c1ccc([C@H]2Nc3ccc(S(=O)(=O)Nc4ccc(C)c(C)c4)cc3[C@H]3C=CC[C@H]32)cc1`, for which the activity change, negative = inhibition is -20.5% in experiment [1]; -6.23% in experiment [2]; -24.3% in experiment [3]; -21.4% in experiment [4]; -22.7% in experiment [5].

`C/C=C1\[C@H](O[C@@H]2O[C@H](CO)[C@@H](O)[C@H](O)[C@H]2O)OC=C(C(=O)OCCc2ccc(O)cc2)[C@H]1CC(=O)OCCc1ccc(O)cc1`: the activity change, negative = inhibition in experiment [1] is -5.42%; in experiment [2], -11.5%; in experiment [3], 1.48%; in experiment [4], -15.8%; in experiment [5] it was -9.59%.

For the compound `C#CCNC(=O)CNC(=O)c1cccc(-c2cc(F)ccc2OC)c1`, the activity change, negative = inhibition in experiment [1] was -4.67%; in experiment [2] it was -9.4%; in experiment [3], -1.18%; in experiment [4] it was -9.47%; in experiment [5], -8.23%.

In the case of `CCCCS(=O)(=O)N1CCC(c2nnc(Cn3cncn3)n2C)CC1`, the activity change, negative = inhibition is -2.65% in experiment [1]; -1.72% in experiment [2]; -3% in experiment [3]; -4.6% in experiment [4]; 1.57% in experiment [5].

With `COC[C@]1(O)CCN(C(=O)c2oc(COc3ccccc3)cc2C)CC1(C)C`, the activity change, negative = inhibition is -1.32% in experiment [1]; 2.01% in experiment [2]; 1.68% in experiment [3]; -0.084% in experiment [4]; 16.6% in experiment [5].

As to `CCOc1ccccc1CN1CCCOCCNC(=O)[C@@H]2CCCC[C@@H]21`, the activity change, negative = inhibition in experiment [1] was -7.58%; in experiment [2], -5.19%; in experiment [3], -3.06%; in experiment [4], -3.72%; in experiment [5], -6.22%.
